Some of the results follow. The full chains were built here from the parent and the listed change. Inactive controls read about 0.05.
B1: TEV protease; numbered along this chain (parent)
chain: MGESLFKGPRDYNPISSSICHLTNESDGHTTSLYGIGFGPFIITNKHLFRRNNGTLVVQSLHGVFKVKDTTTLQQHLVDGRDMIIIRMPKDFPPFPQKLKFREPQREERICLVTTNFQTKSMSSMVSDTSCTFPSGDGIFWKHWIQTKDGQCGSPLVSTRDGFIVGIHSASNFTNTNNYFTSVPKNFMELLTNQEAQQWVSGWRLNADSVLWGGHKVFMVKPEEPFQPVKEATQL

Variants of: B1
Test: raw area under fraction-flipped curve 0-4 h after induction (AUC4h, not background-subtracted), DNA-recorder readout of cleavage of the substrate (dimensionless); higher = more cleavage of the substrate by the protease variant
Conditions: temperature: 34 °C; time window: 0-4 h after rhamnose induction
Procedure: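 In vivo DNA recorder in E. coli TOP10(DE3) ΔrhaA at 34 °C. Each TEVp single-site mutant (parent TEVp 0) is paired with a single-site variant of the 7-mer TEVs (canonical ENLYFQ|S). The substrate sits between flexible linkers in a Bxb1-sfGFP-TEVs-SsrA fusion, so cleavage stabilises Bxb1 and speeds flipping of a recombination array, read by NGS. The value is the raw area under the fraction-flipped curve over 0-4 h after rhamnose induction (AUC4h), with ≥20 reads per time point. It is not background-subtracted; inactive controls average about 0.047.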
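Also: Bxb1 expression induced with 0.2% (w/v) L-rhamnose at OD600 near 0.5, cultures sampled hourly, flipped fraction per protease–substrate barcode pair counted by paired-end Illumina sequencing.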

Variant	area with substrate ENAYFQS	area with substrate ENCYFQS	area with substrate ENDYFQS	area with substrate ENEYFQS	area with substrate ENFYFQS	area with substrate ENGYFQS	area with substrate ENHYFQS	area with substrate ENIYFQS	area with substrate ENMYFQS	area with substrate ENNYFQS	area with substrate ENPYFQS	area with substrate ENQYFQS	area with substrate ENRYFQS	area with substrate ENSYFQS	area with substrate ENVYFQS	area with substrate ENWYFQS	area with substrate ENTYFQS	area with substrate ENYYFQS	area with substrate ENKYFQS
MGESLFKGPRDYNPISSSICHLTNESDGHTTSLYGIGFGPFIITNKHLFRRNNGTLVVQSLHGVFKVKDTTTLQQHLVDGRDMIIIRGPKDFPPFPQKLKFREPQREERICLVTTNFQTKSMSSMVSDTSCTFPSGDGIFWKHWIQTKDGQCGSPLVSTRDGFIVGIHSASNFTNTNNYFTSVPKNFMELLTNQEAQQWVSGWRLNADSVLWGGHKVFMVKPEEPFQPVKEATQL [M88G]	0.0492	0.0425	0.0415	0.0566	0.0541	0.0672	0.0586	0.0776	0.0496	0.0369	0.0471	0.0471	0.0488	0.0836	0.0874	0.0246	–	–	–
MGESLFKGPRDYNPISSSICHLTNESDGHTTSLYGIGFGPFIITNKHLFRRNNGTLVVQSLHGVFKVKDTTTLQQHLVDGTDMIIIRMPKDFPPFPQKLKFREPQREERICLVTTNFQTKSMSSMVSDTSCTFPSGDGIFWKHWIQTKDGQCGSPLVSTRDGFIVGIHSASNFTNTNNYFTSVPKNFMELLTNQEAQQWVSGWRLNADSVLWGGHKVFMVKPEEPFQPVKEATQL [R81T]	0.0533	0.0603	0.0619	0.0624	0.0689	–	0.0514	–	0.0671	0.0637	0.0534	0.063	0.0641	0.0647	0.0579	–	–	–	–
MGESLFKGPRDYNPISSSICHLTNESDGHTTSLYGIGFGPFIITNKHLFRRNNGTLVVQSLHGVFKVKDTTNLQQHLVDGRDMIIIRMPKDFPPFPQKLKFREPQREERICLVTTNFQTKSMSSMVSDTSCTFPSGDGIFWKHWIQTKDGQCGSPLVSTRDGFIVGIHSASNFTNTNNYFTSVPKNFMELLTNQEAQQWVSGWRLNADSVLWGGHKVFMVKPEEPFQPVKEATQL [T72N]	0.0558	0.0691	0.0639	0.0642	0.0672	0.0653	–	0.117	0.0472	0.0695	0.098	0.0746	0.0597	0.0557	0.077	0.0781	0.063	0.0448	–
MGESLFKGPRDYNPISSSICHLTNESDGHTTSLYGIGFGPFIITNKHLFRRNNGTLVVQSLHGVFKVKDTTVLQQHLVDGRDMIIIRMPKDFPPFPQKLKFREPQREERICLVTTNFQTKSMSSMVSDTSCTFPSGDGIFWKHWIQTKDGQCGSPLVSTRDGFIVGIHSASNFTNTNNYFTSVPKNFMELLTNQEAQQWVSGWRLNADSVLWGGHKVFMVKPEEPFQPVKEATQL [T72V]	0.0543	0.0578	0.0665	0.0613	0.0656	–	–	–	–	0.0694	0.0534	0.0605	0.0491	0.0597	–	0.0667	0.0489	0.0876	–
MGESLFKGPRDYNPISSSICHLTNESDGHTTSLYGIGFGPFIITNKHLFRRNNGTLVVQSLHGVFKVKDTTRLQQHLVDGRDMIIIRMPKDFPPFPQKLKFREPQREERICLVTTNFQTKSMSSMVSDTSCTFPSGDGIFWKHWIQTKDGQCGSPLVSTRDGFIVGIHSASNFTNTNNYFTSVPKNFMELLTNQEAQQWVSGWRLNADSVLWGGHKVFMVKPEEPFQPVKEATQL [T72R]	0.0413	–	0.0576	0.0574	0.0585	0.0709	0.0626	–	–	0.0513	0.0488	0.0686	–	0.0638	0.0664	0.0479	0.0666	0.063	0.0397
MGESLFKGPRDYNPISSSICHLTNESDGHTTSLYGIGFGPFIITNKHLFRRNNGTLVVQSLHGVFKVKDTTSLQQHLVDGRDMIIIRMPKDFPPFPQKLKFREPQREERICLVTTNFQTKSMSSMVSDTSCTFPSGDGIFWKHWIQTKDGQCGSPLVSTRDGFIVGIHSASNFTNTNNYFTSVPKNFMELLTNQEAQQWVSGWRLNADSVLWGGHKVFMVKPEEPFQPVKEATQL [T72S]	0.0473	–	0.0442	–	0.0397	–	–	–	–	0.0686	0.0457	0.0591	–	0.0646	–	0.0555	–	–	–
MGESLFKGPRDYNPISSSICHLTNESDGHTTSLYGIGFGPFIITNKHLFRRNNGTLVVQSLHGVFKVKDTTHLQQHLVDGRDMIIIRMPKDFPPFPQKLKFREPQREERICLVTTNFQTKSMSSMVSDTSCTFPSGDGIFWKHWIQTKDGQCGSPLVSTRDGFIVGIHSASNFTNTNNYFTSVPKNFMELLTNQEAQQWVSGWRLNADSVLWGGHKVFMVKPEEPFQPVKEATQL [T72H]	0.0601	0.0739	0.0513	0.0598	0.0613	0.0371	0.0592	–	0.0689	0.0619	0.0605	0.0544	–	0.0555	0.0664	0.0466	0.0621	0.0551	0.0596
MGESLFKGPRDYNPISSSICHLTNESDGHTTSLYGIGFGPFIITNKHLFRRNNGTLVVQSLHGVFKVKDTTTLQPHLVDGRDMIIIRMPKDFPPFPQKLKFREPQREERICLVTTNFQTKSMSSMVSDTSCTFPSGDGIFWKHWIQTKDGQCGSPLVSTRDGFIVGIHSASNFTNTNNYFTSVPKNFMELLTNQEAQQWVSGWRLNADSVLWGGHKVFMVKPEEPFQPVKEATQL [Q75P]	0.0663	0.0673	0.0552	0.0578	0.0551	0.0755	0.0445	0.0635	0.0502	0.0594	0.0682	0.0598	0.0586	0.0694	0.0471	0.0715	0.0575	–	0.0514

— the supplement of paper PMC12217912
